Test results taken from PubChem BioAssay AID720708 (National Center for Advancing Translational Sciences (NCATS), 2013).
About 660 (0.18%) of roughly 360,000 compounds were called active. The shares of active, inactive and inconclusive entries below differ from those in the screen. The call rests on the fitted dose curve; in most records, active means well fitted inhibition curve with a large enough effect; inconclusive means small, poorly fitted or top-dose-only effect; inactive means no such curve, though single readings can be large or run the other way. No potency is given beside an inconclusive call; the fits are too rough.

Molecular target: Rap guanine nucleotide exchange factor 4 (Homo sapiens) (UniProt Q8WZA2)
UniProt Q8WZA2, sequence (Q8WZA2 whole entry, looked up): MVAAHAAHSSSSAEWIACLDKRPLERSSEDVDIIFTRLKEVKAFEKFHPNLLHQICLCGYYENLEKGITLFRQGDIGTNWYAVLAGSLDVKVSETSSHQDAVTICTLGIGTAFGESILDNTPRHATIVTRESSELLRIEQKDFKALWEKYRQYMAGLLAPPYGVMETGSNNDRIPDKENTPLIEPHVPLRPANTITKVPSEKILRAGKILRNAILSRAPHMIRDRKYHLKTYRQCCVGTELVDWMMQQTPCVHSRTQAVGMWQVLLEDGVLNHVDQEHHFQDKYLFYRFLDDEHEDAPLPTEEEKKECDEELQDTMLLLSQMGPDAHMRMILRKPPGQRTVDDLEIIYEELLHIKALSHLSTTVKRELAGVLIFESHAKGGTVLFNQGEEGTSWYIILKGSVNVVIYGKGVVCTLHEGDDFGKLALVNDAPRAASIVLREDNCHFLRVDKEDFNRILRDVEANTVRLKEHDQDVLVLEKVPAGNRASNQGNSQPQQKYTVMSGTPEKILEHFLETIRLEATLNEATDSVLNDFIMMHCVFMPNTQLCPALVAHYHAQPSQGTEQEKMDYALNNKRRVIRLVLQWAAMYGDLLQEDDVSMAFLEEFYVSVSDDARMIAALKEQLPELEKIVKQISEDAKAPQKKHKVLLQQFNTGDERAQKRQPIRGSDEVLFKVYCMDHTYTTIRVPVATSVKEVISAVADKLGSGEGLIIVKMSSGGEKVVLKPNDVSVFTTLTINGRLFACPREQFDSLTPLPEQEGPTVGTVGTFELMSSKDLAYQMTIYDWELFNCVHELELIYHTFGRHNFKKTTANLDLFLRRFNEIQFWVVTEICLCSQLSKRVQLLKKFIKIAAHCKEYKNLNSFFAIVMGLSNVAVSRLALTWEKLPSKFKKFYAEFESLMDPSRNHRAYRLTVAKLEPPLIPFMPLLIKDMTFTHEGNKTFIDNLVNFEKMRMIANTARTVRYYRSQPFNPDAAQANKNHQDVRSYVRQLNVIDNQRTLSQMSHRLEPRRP
Experiment: qHTS for Antagonist of cAMP-regulated guanine nucleotide exchange factor 2 (EPAC2): primary screen; further: nearly all actives have a fitted effect of over 45% in size
Details: EPAC2 GEF exchange of Rap1B-BODIPY-GDP, fluorescence; activity, negative = inhibition: at 114 µM (top of the series) unless noted
On the % scale 0 is the no-effect control and ±100 the full control effect; potency means the concentration at half of the fitted maximal effect; tags describe the fitted curve by direction and shape.

| Structure (SMILES) | activity, negative = inhibition | Potency |
| --- | --- | --- |
| O=C(Cn1c(C(=O)N2CCc3ccccc3C2)cc2sccc21)c1ccccc1 | inactive: 12.7% |  |
| CC(O)c1c(OCc2ccccc2)ncnc1OCc1ccccc1 (stereo not drawn) |  | inconclusive [inhibitor, partial curve] |
| Cn1c(C(O)c2ccc(Br)cc2)nc(Cl)c1Cl (stereo not drawn) |  | inconclusive [inhibitor, partial curve] |
| O=C(CCc1ccc(S(=O)(=O)N2CCOCC2)cc1)N/N=C/c1ccc(O)c(O)c1O | inactive: 9.65% |  |
| COc1cc(NS(=O)(=O)c2ccc(NC(=S)NC(=O)/C=C/c3ccc(F)cc3)cc2)ncn1 |  | inconclusive [inhibitor, single point] |
| COc1ccc(-c2csc(C(NC(C)=O)c3cccc(OC)c3)n2)cc1 (stereo not drawn) |  | inconclusive [inhibitor, single point] |
| CC1(C)c2ccccc2N(CC(N)=O)C12C=Cc1ccccc1O2 (stereo not drawn) |  | active: 17.8 µM |
| O=C(COc1ccccc1Br)NCCC1=CCCCC1 |  | inconclusive [inhibitor, partial curve] |
| CC(C)Cc1ccc(CN2CCCC(NC(=O)c3cnc4ccccn4c3=O)C2)cc1 (stereo not drawn) |  | inconclusive [inhibitor, partial curve] |
| COc1cc(/C=C2/SC(=S)NC2=O)ccc1OS(=O)(=O)c1ccc(C)cc1 |  | active: 39.8 µM |
| CCOC(=O)c1cc(C)n(-c2ccc(Cl)cc2)c1C |  | inconclusive [inhibitor, partial curve] |
| COc1ccc(C)cc1COC(=O)c1[nH]c(C)c(C(C)=O)c1C |  | inconclusive [inhibitor, single point] |
| CCN1C(=O)[C@@H]2[C@@H](c3ccc(-c4ccc(OC)cc4)cc3)N3CCC[C@@]3(C(=O)OC)[C@@H]2C1=O |  | inconclusive [inhibitor, single point] |
| CC(=O)NC(c1cccc(F)c1)c1nc(/C=C/c2ccccc2)cs1 (stereo not drawn) |  | inconclusive [inhibitor, partial curve] |
| O=C1C=C(c2cccc(Cl)c2O)C[C@@H](c2ccc(Cl)cc2)C1 |  | inconclusive [inhibitor, full curve, poor fit] |
| O=C(CCSc1nc(-c2ccccc2)c(-c2ccccc2)o1)N1CCCCC1 |  | inconclusive [inhibitor, full curve, poor fit] |
| O=C(c1cccc(Br)c1)N1CCCc2ccccc21 |  | inconclusive [inhibitor, partial curve] |
| Cc1ccc(NC(=S)/C(C#N)=C2/Nc3ccccc3S2)cc1 |  | active: 20 µM |
